PubChem BioAssay (Tox21)
Inconclusive results are not listed. Unless noted, calls follow the shape of the full dose curve. Some structures have more than one record in an assay (separate samples or runs), and their calls can disagree. For part of its entries the source gives two or more results. This list holds those alone. The source may hold further records. Values given together are repeated measurements in other runs, samples, wells, individuals or studies. Records carry a tag for their origin. Letters count within one entry.

Tests used:
[1] = qHTS assay for small molecules that induce genotoxicity in human embryonic kidney cells expressing luciferase-tagged ATAD5 - cell viability (AID 651634); also: nearly all actives have a fitted effect of over 25% in size
Outline: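 Fluorescence from CellTiter-Fluor, reporting protease activity within live cells, served as the viability read-out. HEK293T cells carrying luciferase-tagged ATAD5 had been treated with compound for 15.5 hr at 37C.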

[2] = qHTS assay to identify small molecule antagonists of the peroxisome proliferator-activated receptor gamma (PPARg) signaling pathway - cell viability counter screen (AID 743194; active = well fitted curve in the direction sought with a large enough effect in the repeat runs; an effect the other way counts as inactive or inconclusive; also: nearly all actives have a fitted effect of over 55% in size)
Outline: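 Cytotoxicity counter screen in PPARg-bla HEK293H cells, same wells as reporter assay. Compounds plus 50 nM rosiglitazone (final) for 17 h at 37 C, then viability read by CellTiter-Glo luminescence.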

[3] = A CellTox Green Cytotoxicity Assay to monitor cytotoxicity in HEK293 cells - 24 hour (AID 1224875; active = well fitted curve in the direction sought with a large enough effect in the repeat runs; an effect the other way counts as inactive or inconclusive; also: nearly all actives have a fitted effect of over 45% in size)
Outline: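 Nonlytic real-time cytotoxicity: HEK293 + CellTox Green reagent plated, 5 h preincubation, pintool compound addition (23 nL in DMSO), 37 C for 40 h, fluorescence measured at successive time points.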
Potency is read from the fitted curve at half-maximal effect.

Row | Structure (SMILES) | Potency [1] | Potency [2] | Potency [3]
1 | CCOC(=O)C(O)(c1ccc(Cl)cc1)c1ccc(Cl)cc1 | active: 24.6 µM [sample A] and inactive [sample B] | active: 11.1 µM [sample A] and inactive [sample B] | active: 44.1 µM [sample A] and inactive [sample B]
2 | CC(C)[C@@]1(NC(=O)[C@@H]2C[C@@H]3c4cccc5[nH]cc(c45)C[C@H]3N(C)C2)O[C@@]2(O)[C@@H]3CCCN3C(=O)[C@H](Cc3ccccc3)N2C1=O | active: 29.8 µM [sample A] and inactive [sample B] | – | –
